Reference: PubChem BioAssay AID1963576 (National Center for Advancing Translational Sciences (NCATS), 2024)
In all, about 46,000 compounds went through this assay and about 60 (0.1%) were called active. Not shown: some 3% with an inconclusive outcome. Calls follow the shape of the dose curve; as a rule, active = well fitted inhibition curve with a large enough effect; inconclusive = small, poorly fitted or top-dose-only effect; inactive = no such curve, though single readings can be large or run the other way. The list shows a part of the results.

Experiment: Primary qHTS assay for Inhibitors of ovarian cancer metastasis using an organotypic tumor microenvironment (TME) model. Also: nearly all actives have a fitted effect of over 65% in size.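 As to activity change, negative = inhibition: plate controls were DMSO wells for no effect and tomatine positive control wells for full effect.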
Conditions: SKOV3ip1-GFP adhesion/invasion on 3D omental model, fluorescence; series mostly up to 45.8 µM; activity change, negative = inhibition: at the top concentration
Method in brief: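 A 3D layer of primary human omental fibroblasts, mesothelial cells, fibronectin and collagen I, grown 48 hr, received SKOV3ip1-GFP cells in serum-free medium plus compounds at 0.36-46 umol/L. After 2 hr RT and 16 hr 37 C, fixed adherent GFP cells were counted; normalized to DMSO and tomatine.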

outcome, inactive:
COc1ccc(OC)c(NC(=O)c2ccc3c(SCC(=O)O)c4c(nc3c2)CCCC4)c1, COc1cc(OC)cc(C(=O)Nc2cc(-c3nc4ccccc4[nH]3)ccc2C)c1, O=c1c2sccc2n(Cc2cc(=O)n3ccccc3n2)c(=O)n1-c1cc(F)ccc1F, Cc1ccccc1CNC(=O)c1nn(-c2ccccc2F)nc1CO, CCN(CC)CCCNc1cc(-c2ccccc2)nc(C)n1, COc1ccc(CCNC(=O)CSc2nc3nc(C)c(Cc4ccc(C)cc4)c(C)n3n2)cc1OC, COc1ccc(Cn2c(=O)[nH]c3cc(C(=O)NCCC(C)C)ccc3c2=O)cc1, COc1cc(C(=O)N(Cc2ccc(F)cc2)Cc2ccco2)cc(OC)c1OC, Cc1ccc(/C=C/C(=O)Nc2nc(-c3cccs3)ns2)cc1, COc1cc(OC)c(NC(=O)CSC2=Nc3ccccc3N=C(c3ccc(F)cc3)C2)cc1Cl, Cc1ccc(-c2nn(-c3cccc([N+](=O)[O-])c3)c3c2cnc2ccc(F)cc23)cc1, Cc1ccc2oc(-c3ccc(C)c(NC(=O)c4ccc5c(c4)OCCO5)c3)nc2c1, COc1ccc(-n2c(=O)c3c(c4cc(OC)ccc4n3C)n(CC(=O)NCC3CCCO3)c2=O)cc1 (stereo unspecified), CCc1nn2c(-c3ccco3)ccnc2c1-c1ccc(F)cc1, COc1cc(Cl)c(NC(=O)c2cc(S(=O)(=O)N3CCOCC3)cn2C)c(OC)c1, Cc1ccc(S(=O)(=O)Nc2ccc(-c3ccc(N4CCCCCC4)nn3)cc2)cc1C, CCOC(=O)CNC(c1ccccc1)c1cc(Br)ccc1NC(=O)c1ccc(Cl)cc1 (stereo unspecified)

Activity change, negative = inhibition, inactive:
O=S(=O)(c1ccc(Cl)cc1)c1nc(-c2cccc(Br)c2)oc1NCc1ccccc1 -9.73%, COc1ccc(CCn2c(=O)c3cccnc3n(CC(=O)Nc3c(C)cccc3C)c2=O)cc1OC 4.25%, CCc1cccc(C)c1NC(=O)Cn1c(=O)n(-c2ccc(C)cc2)c(=O)c2c1cnn2C 3.03%, COc1ccc(-c2nnc(SCC(=O)Nc3cc(OC)ccc3OC)nc2-c2ccc(OC)cc2)cc1 1.4%, Cc1ccc2nc(COc3ccccc3NC(=O)c3ccccc3C)cc(=O)n2c1 -9.02%, CCC(=O)N1c2ccccc2CC1C(=O)NCc1cccc(OC)c1OC (stereo unspecified) 3.93%, COc1cccc(-c2ccc(-c3noc(-c4ccccc4Br)n3)c(OC)n2)c1 -6.98%, O=C(c1ccco1)N1CCN(c2nc3c(F)cc(F)cc3s2)CC1 -4.34%, CCOC(=O)C1CCCN(c2nc3c(S(=O)(=O)c4ccc(Br)cc4)nnn3c3ccsc23)C1 (stereo unspecified) -16.6%, COC(=O)c1c(SC)nc2ccccc2c1OCc1ccc(Br)cc1 4.95%, O=C(/C=C/c1ccco1)Nc1ccc(F)cc1 -4.34%, COc1cccc2c1Oc1ncccc1N(C(=O)CCC(=O)NCCC(C)C)C2 -2.84%, COc1ccc(C(=O)Nc2ccc(-c3nnc4n3CCCCC4)cc2)cc1 -3.18%, CCn1nc(-c2ccccc2)c(-c2ccccc2)c(C(=O)Nc2ccc(S(N)(=O)=O)cc2)c1=O 0.8%, CCN1CCN(C(=O)c2ccc3c(c2)N(Cc2cccc(Cl)c2)C(=O)c2ccccc2S3=O)CC1 (stereo unspecified) -5.58%, O=S(=O)(c1ccc(Cl)cc1)c1nc(-c2ccccc2Br)oc1NCc1ccccc1 0.518%, Cc1ccc(N(CC(=O)Nc2cccc(Cl)c2C)S(=O)(=O)c2c(C)noc2C)cc1 0.395%, COc1ccc(CNC(=O)CS(=O)Cc2nc(-c3ccc(OC)c(OC)c3)oc2C)cc1 (stereo unspecified) 8.27%, CCn1c(C)c(C)c2cc(C(=O)NCCCN3CCCCC3C)ccc21 (stereo unspecified) -1.79%, COc1ccc(-n2cc(C(=O)N(CCN(C)C)Cc3ccccc3)c3ccccc3c2=O)cc1 -5.36%, CCOc1ccc2nc(N3CCN(C(=O)c4ccc(S(=O)(=O)CC)cc4)CC3)sc2c1 -6.49%, CC(C)CCNC(=O)c1ccc(Cn2c(=O)c3cccn3c3cccnc32)cc1 -6.87%, Cc1ccccc1Nc1c(-c2cccc(O)c2)nc2ccc(Br)cn12 1.74%, CCOC(=O)c1nc(Nc2ccc(OC)cc2)c2ccccc2n1 6.53%, O=S(=O)(NCc1ccc(F)cc1)c1ccc2[nH]c3c(c2c1)CCCCC3 7.94%, Cc1ccc(CNC(=O)c2cc(S(=O)(=O)N3CCCC(C)C3)cn2C)cc1 (stereo unspecified) 39.7%, Cc1sc(C2C(C#N)=C(N)N(c3cccc(Cl)c3)C3=C2C(=O)CCC3)cc1CN1CCOCC1 (stereo unspecified) -7.74%, Cc1cc2c(n1-c1ccc(C(=O)NCC(C)c3ccccc3)cc1)CCCC2 (stereo unspecified) -1.76%, Cc1cccc(Nc2nc(Nc3cccc(C)c3)nc(N3CCOCC3)n2)c1 -15.2%, CCOc1ccc(CNC(=O)c2ccc3c(c2)sc2nc(-c4ccc(OC)cc4)cn23)cc1 -5.51%, Cc1ccc(F)cc1NC(=O)CCc1c(C)nn(-c2ccc(N3CCCCC3)nn2)c1C 9.71%, CC(CCO)Nc1nc2c(c(=O)n(C)c(=O)n2C)n1Cc1ccc(Br)cc1 (stereo unspecified) -20%, COc1ccc(NC(=O)Cn2c(=O)n(-c3cccc(C)c3)c(=O)c3c2c2cc(C)ccc2n3C)cc1OC -28.2%, CCOc1cccc(C(=O)Nc2ccc3oc(-c4ccc(C(C)(C)C)cc4)nc3c2)c1 3.87%, CCN(CCCNC(=O)c1ccc(Sc2ccc(C)cc2)c(NC(C)=O)c1)c1cccc(C)c1 2.11%, CCOC(=O)c1ccc(-c2ccc(/C=C(\C#N)C(=O)Nc3c(C)cccc3Cl)o2)cc1 2.19%, C#CCSc1nc2sc3c(c2c(=O)n1-c1cccc(OC)c1)CCN(C(C)=O)C3 1.77%, CC(=O)c1c(C)oc2c(Cl)cc(NS(=O)(=O)c3cc(C)c(C)cc3C)cc12 4.68%, CCCOc1ccc(-c2nonc2NC(=O)COc2ccc(C)cc2)cc1OCCC -29.9%, COCCn1c(SCC(=O)c2ccc(OC)cc2)nc2cc(C(=O)NC3CCCC3)ccc2c1=O 27.9%, CC1CCN(c2ccc(-c3cccc(NS(=O)(=O)c4ccc(Cl)s4)c3)nn2)CC1 5.84%, CC(C)(C)NC(=O)Cn1cc(S(=O)(=O)Cc2ccc(F)cc2)c2ccccc21 3.68%, CCC(=O)Nc1ccc2nc(SCCOc3cccc(C)c3)sc2c1 -14.1%, Cc1ccc(S(=O)(=O)c2nnn(CC(=O)Nc3ccccc3C)c2N)cc1C 1.8%
